Results on 84 molecules are retold here after ChEMBL document CHEMBL4888484, “Replenishing the malaria drug discovery pipeline: Screening and hit evaluation of the MMV Hit Generation Library 1 (HGL1) against asexual blood stage Plasmodium falciparum ,using a nano luciferase reporter read-out” (2022).

In all, about 150,000 compounds went through this assay and about 540 (0.36%) showed an effect of 50% or more. This is one part of the list.

For this experiment, the system named is Plasmodium falciparum. Description: Primary screen in NF54 nanoGlo assay, in single point, at 2uM, 72h; a lower Z score goes with more inhibition. Particulars: timepoint 72 hour. It counts as functional, Erythrocyte.
Regarding `O=C(O)Cc1ccc(CN2C[C@@H]3CC[C@@H](C3)C2)cc1`, the % Inhibition (in general, the relative decrease from the control value, in per cent) is recorded as -8% and the Z score came to 1.31.
Take `CCS(=O)(=O)N(C1CC1)[C@H]1CCOC2(CCN(C(=O)Cc3cccc(F)c3)CC2)C1`: the “% Inhibition” value is recorded as -3% and the Z score is listed as 0.45.
As to `O=C(c1c[nH]c(C(=O)N2CCCC2)c1)N1CCN(c2cccc(Cl)c2)CC1`, the “% Inhibition” value worked out at 24% and the Z score is -2.67.
For `O=C(NCCCF)c1cccc(Br)c1Cl` the same measures were -20% and 2.74.
The like results for `COC1(c2nc(-c3cccc(NC(=O)C(C)C)c3)no2)CCOCC1` were, in that order, -11% and 1.08.
For the molecule `OC1CCN(CC2(c3ccccc3)CC2)CC1`, the “% Inhibition” value is recorded as -6% and the Z score is given as 0.83.
Regarding `COc1ccnc(CN2CCC[C@H](C(=O)c3cc(C)c(OC)c(C)c3)C2)c1OC`, the “% Inhibition” value is 8% and the Z score is listed as -1.25.
Take `CCOC(=O)c1cccc(Nc2onc(-c3cccc(Cl)c3)c2C(=O)OC)c1`: the “% Inhibition” value is listed as -6% and the Z score is given as 1.11.
Consider `O=C(NCC(O)CNC(=O)C1(c2cccc(F)c2)CCC1)C1(c2cccc(F)c2)CCC1`, for which the “% Inhibition” value was -7% and the Z score amounted to 1.02.
For `Cc1ccc(C)c(NC(=O)NC2CCCCCCC2)c1` the same measures were 8% and -1.11.
On to `O=C(CCOCC(F)(F)F)NCC=Cc1ccccc1`, for which the “% Inhibition” value amounted to 0% and the Z score is listed as -0.01.
For `CC1(NC(=O)C2(N3CCCCC3)CCCCC2)CCC1` the same measures were 1% and -0.08.
In the case of `COCCNC(=O)[C@@H](NC(=O)c1cccc(C)c1)C1CCN(C(=O)c2ccco2)CC1`, the “% Inhibition” value is recorded as 6% and the Z score is given as -0.74.
With `O=C1CN(Cc2ccc3c(c2)C2c4ccccc4C3c3ccccc32)CCN1`, the “% Inhibition” value is recorded as 1% and the Z score is -0.18.
For the molecule `O=C(NC1CCOCC1)N1CC[C@H](n2cnc3ccccc32)C1`, the “% Inhibition” value is recorded as -8% and the Z score is 1.51.
As for `CC1CCN(c2cncnc2-n2cc(NC(=O)NC3CCCCC3)cn2)CC1`, the “% Inhibition” value was -10% and the Z score came to 1.17.
Regarding `O=C(COc1ccc[nH]c1=O)Nc1ccccc1F`, the “% Inhibition” value worked out at 4% and the Z score was -0.57.
As for `O=C1c2ccccc2CN1C1(CC(=O)n2ccnc2)CCCCC1`, the “% Inhibition” value is given as -15% and the Z score was 1.89.
The like results for `CO[C@H]1CN(C)C[C@@H]1NS(=O)(=O)c1cccc(F)c1` were, in that order, -15% and 1.96.
Regarding `Cc1nnc(COC(=O)c2csc(Cc3cccc(F)c3)n2)n1C`, the “% Inhibition” value is given as -5% and the Z score is 0.59.
Regarding `Cc1ccc(CN2CCC(CC3CC3)(NC(=O)c3ccccc3)CC2)s1`, the “% Inhibition” value was -4% and the Z score is 0.72.
The like results for `CN(Cc1ncnn1C)C(=O)NC[C@@H]1COc2ccccc2C1` were, in that order, -5% and 0.58.
For `O=C(O)C[C@@H]1CN(C(=O)NCc2cccc(F)c2)C[C@@H]1c1c[nH]nn1` the same measures were 8% and -1.41.
As to `O=S(=O)(Nc1ncn(Cc2c(Cl)cccc2Cl)n1)c1ccc(Cl)cc1`, the “% Inhibition” value is listed as -3% and the Z score is 0.51.
Turning to `O=C(O)c1cc(NC(=O)C2CCCCC2)cc(NC(=O)C2CCCCC2)c1`, the “% Inhibition” value stood at 1% and the Z score is recorded as -0.14.
As for `Cc1nc(-n2[nH]c3c(c2=O)CCCC3)[nH]c(=O)c1CCCN1C(=O)c2ccccc2C1=O`, the “% Inhibition” value is -8% and the Z score was 1.25.
For the molecule `CCc1noc(CS(=O)(=O)CC2(O)CCC(C)CC2)n1` (stereo not drawn), the “% Inhibition” value is given as -6% and the Z score was 0.75.
The like results for `Cc1nc(C(C)C)sc1C(=O)N1C[C@@H](CN2CCCCCC2)[C@@H](CO)C1` were, in that order, 2% and -0.35.
For `O=C(NCCO)Nc1cccc(C(F)F)c1Cl`, the “% Inhibition” value is -3% and the Z score is on record as 0.24.
`CC[C@H](C)NC(=O)c1cccc(Nc2c(Oc3cccc(C)c3)cnn(-c3ccccc3Cl)c2=O)c1`: the “% Inhibition” value is listed as -2% and the Z score amounted to 0.32.
For `O=S(=O)(c1ccc(F)cc1Cl)N1CCn2c1nc1ccccc12` the same measures were 0% and 0.01.
Take `CC(C)OC[C@@H](O)CN(Cc1ccc2c(c1)OCO2)Cc1cccs1`: the “% Inhibition” value was -17% and the Z score worked out at 1.48.
In the case of `CC(C)c1cc(NC(=O)NCCN2C(=O)CCC2=O)no1`, the “% Inhibition” value is given as 5% and the Z score was -0.52.
In the case of `CN1C(=O)c2ccc(NC(=O)C3=NN(c4ccccc4)C(=O)CC3)cc2C1=O`, the “% Inhibition” value is given as 6% and the Z score is recorded as -0.88.
Turning to `CCOc1ccc(S(=O)(=O)N2CCN(c3nc4ccccc4nc3C(F)(F)F)CC2)cc1`, the “% Inhibition” value is -5% and the Z score was 0.98.
For `Cc1ccc(C)c(NC(=O)Cn2c(C)cc(C)c(-c3nc(-c4ccc5c(c4)OCO5)no3)c2=O)c1` the same measures were -12% and 1.71.
For `CC(C)[C@@H]1N(C(=O)c2ccnc3c(C(N)=O)cnn23)CC12CCC2`, the “% Inhibition” value is -4% and the Z score came to 0.45.
With `Cc1cc(C(=O)Nc2cccc(C(F)(F)F)c2)cc2c1N(C)S(=O)(=O)c1ccccc1-2`, the “% Inhibition” value is given as -3% and the Z score was found to be 0.47.
Take `CC(C)Cc1ccc(CN[C@H]2CCC(=O)NC2)cc1`: the “% Inhibition” value is listed as -1% and the Z score was 0.14.
As to `CC(C)[C@H](CC(=O)O)NC(=O)Cc1ccncc1`, the “% Inhibition” value is on record as -3% and the Z score turned out to be 0.41.
With `Cc1nc2c(S(=O)(=O)c3ccccc3)cnn2c(C)c1C`, the “% Inhibition” value was found to be 0% and the Z score was -0.04.
Turning to `Cc1cnc(-c2noc([C@@H]3CC=CCC3)n2)s1`, the “% Inhibition” value is on record as -10% and the Z score worked out at 1.41.
As to `CCC(=O)N1CCN(Cc2cnn(-c3ccccc3)c2)[C@@H]2CS(=O)(=O)C[C@@H]21`, the “% Inhibition” value is listed as -13% and the Z score was found to be 1.67.
For the molecule `Cn1nccc1C1(O)CCN(C(=O)c2cccc(C3CC3)c2)CC1`, the “% Inhibition” value was -7% and the Z score is reported as 1.01.
For `O=C(O)c1cccc(-c2noc(C3CC3)n2)c1` the same measures were 11% and -1.45.
Take `COc1ccccc1-c1noc2ncnc(NCCN3CCCCC3)c12`: the “% Inhibition” value is 2% and the Z score was -0.21.
Take `CCC(=O)Nc1c(C)noc1/C=C\c1ccc(S(=O)(=O)NCc2cccc(OC)c2)cc1`: the “% Inhibition” value is given as -21% and the Z score was determined as 2.89.
With `Cc1cc(CNC(=O)N2CC(C)OCC2C)cc(N2CCCC2)n1` (stereo not drawn), the “% Inhibition” value is recorded as -7% and the Z score is recorded as 1.
Regarding `O=C(NCc1cc(C2CC2)on1)c1cccc(S(=O)(=O)NC2CCC2)c1`, the “% Inhibition” value is -1% and the Z score was 0.15.
In the case of `O=C(NCCCn1ncccc1=O)c1ccc2ccccc2n1`, the “% Inhibition” value was -21% and the Z score was determined as 3.96.
Regarding `CN(C(=O)Cc1cnccn1)C1CCCCCCC1`, the “% Inhibition” value is on record as 6% and the Z score is -0.98.
For `FC(F)(F)CCC(CCC(F)(F)F)NCc1cc[nH]n1`, the “% Inhibition” value is recorded as -8% and the Z score was 1.68.
In the case of `COc1ccc(Cl)cc1NC(=O)N1CC[C@H](Oc2ccncn2)C1`, the “% Inhibition” value is on record as -11% and the Z score was 1.68.
Take `Brc1cnn(-c2nc3cnccc3s2)c1`: the “% Inhibition” value was -8% and the Z score is 1.11.
As for `Cc1ccc(Cc2ccccc2C(=O)N[C@H]2C[C@H](c3cc(=O)[nH]cn3)C2)cc1`, the “% Inhibition” value was -28% and the Z score is given as 3.59.
For the molecule `O=C(NCc1ccncc1)c1nnc(-c2ccccc2)o1`, the “% Inhibition” value stood at 11% and the Z score is -1.76.
Consider `CCc1ccc(CNS(=O)(=O)[C@H]2CCN(C(=O)OCc3ccccc3)C2)s1`, for which the “% Inhibition” value is listed as -28% and the Z score turned out to be 3.25.
On to `CC(C)n1cc(S(=O)(=O)N2CCC[C@H]2c2ncccn2)cn1`, for which the “% Inhibition” value is -6% and the Z score came out at 0.63.
As to `O=C(CC1CCCC1)NC1CCCCCC1`, the “% Inhibition” value is reported as -2% and the Z score turned out to be 0.29.
For `CC(C(=O)N1CCC(CNC(=O)OC(C)(C)C)(C(F)F)C1)C1CC1` (stereo not drawn) the same measures were -6% and 1.19.
Consider `C=C(C)COc1ccccc1NC(=O)c1ccnnc1`, for which the “% Inhibition” value is -4% and the Z score was 0.54.
Consider `CCOC(=O)c1nn(CCc2ccccc2)c2c1CN(C(=O)[C@H]1CCOC1)CC2`, for which the “% Inhibition” value was -11% and the Z score is 1.4.
`CNC(=O)[C@@H]1CCCCN1C(=O)CCCOCc1ccccc1`: the “% Inhibition” value is listed as -6% and the Z score is 0.68.
`CC1NC(=O)C(C)N(S(=O)(=O)c2cnc3ccsc3c2)C1C` (stereo not drawn): the “% Inhibition” value was -2% and the Z score came out at 0.24.
The like results for `CNc1cc(C(=O)N[C@H]2COCC[C@@H]2OC)ccn1` were, in that order, -2% and 0.24.
In the case of `COc1cc(C(=O)N2CCCCC2)c(N(C)S(C)(=O)=O)cc1OC`, the “% Inhibition” value is given as 35% and the Z score is on record as -3.91.
For `Cc1nc2c(s1)[C@@H](NC(=O)Nc1ccnn1C1CC1)CCC2`, the “% Inhibition” value is recorded as -1% and the Z score stood at 0.19.
Take `CN1CCN(C(=O)[C@@H]2CCc3ccccc3N2)CC1`: the “% Inhibition” value was 6% and the Z score is on record as -0.98.
Regarding `C[C@@H](C(=O)N1CCCc2ccccc21)N1CC(n2cccn2)C1`, the “% Inhibition” value is 2% and the Z score is -0.34.
In the case of `CN1CC(C(=O)NC(c2ccccc2)c2cccs2)CC1=O` (stereo not drawn), the “% Inhibition” value is given as -1% and the Z score came out at 0.2.
For the molecule `COc1cnc(NC(=O)NCCN2CCO[C@@H](C)C2)s1`, the “% Inhibition” value is 0% and the Z score worked out at 0.
On to `COCCNC(=O)CCNCc1cc(-c2ccccc2)cs1`, for which the “% Inhibition” value was determined as 4% and the Z score is reported as -0.57.
For the molecule `CS(=O)(=O)N[C@H]1CCCN(c2ncc(-c3ccccc3)s2)C1`, the “% Inhibition” value is on record as 36% and the Z score was -5.19.
As for `COc1cc(OC)nc(Oc2cccc(OC)c2C(=O)NS(=O)(=O)C(C)C)n1`, the “% Inhibition” value is recorded as -5% and the Z score worked out at 0.7.
For `Cc1ccc(N2C[C@@H](c3noc(-c4ccc(OC(F)(F)F)cc4)n3)CC2=O)cc1` the same measures were -20% and 1.86.
Take `O=C(Nc1nnn[nH]1)C(O)(c1ccccc1)c1ccccc1`: the “% Inhibition” value was found to be 8% and the Z score was -1.65.
As to `Cc1[nH]c2ccccc2c1C1CCN(C(=O)CCc2ncc[nH]2)CC1`, the “% Inhibition” value is recorded as -4% and the Z score is 0.74.
With `O=C(COc1ccc(Cl)cc1Cl)NC1CCC(CC2CCC(NC(=O)COc3ccc(Cl)cc3Cl)CC2)CC1` (stereo not drawn), the “% Inhibition” value worked out at 11% and the Z score is recorded as -1.33.
On to `OC[C@H]1CN(CCn2ccc3cc(Cl)ccc32)CCC1(F)F`, for which the “% Inhibition” value is -5% and the Z score stood at 0.69.
`Cc1nc(N2CCCC(C(=O)NCC3COc4ccccc4O3)C2)nc2cc(S(C)(=O)=O)ccc12` (stereo not drawn): the “% Inhibition” value is -3% and the Z score was 0.6.
Turning to `COc1ccccc1CC(=O)Nc1cc(S(=O)(=O)N2CCOCC2)ccc1OC`, the “% Inhibition” value is reported as -2% and the Z score is recorded as 0.21.
The like results for `OCC1(Cn2cnc3c(N(CC4CC4)C4CCCCC4)ncnc32)COC1` were, in that order, 1% and -0.2.
The like results for `O=C(NCCCC[C@H]1CCCO1)C1CCOCC1` were, in that order, -5% and 0.87.
For `Cc1cc(NC(=O)c2ccsc2)no1` the same measures were -5% and 0.72.
